Experimental data from the supplement of paper PMC10126150.
Sequences with one replicate were seen in a single cluster, so their values are uncertain.

Test system: ATP
Experiment: switch fluorescence ratio, 500 uM ATP over buffer (Cy3 cluster intensity, sum of 5 cycles each) (fold (ratio)); higher = stronger signal-on switching upon ATP binding; sequences stand for … in TCGTCGGCAGCGTCAGATGTGTATAAGAGACAGTTTTTTTTTTTTTTTTTTTTTTTTT…TC
Details: aptamer strand: ATP DNA aptamer (quencher-CACCTGGGGGAGTATTGCGGAGGAAGG + anchor), 100 nM annealed; ATP concentration: 500 uM; one replicate
Outline: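 Exposure to 500 uM ATP lasted 15 min at 22 °C before imaging, and a selection-buffer image was taken beforehand, for Cy3-labelled switching-strand clusters on a modified Illumina MiSeq flow-cell annealed to 100 nM quencher-labelled ATP aptamer. Five buffer/ATP cycles were run with NaOH stripping and re-annealing between them. The fluorescence ratio per cluster is summed target-cycle over summed buffer-cycle Cy3 intensity, averaged per switch-domain sequence. Clusters outside 100-1000 RFU were excluded.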

| Sequence | switch fluorescence ratio |
| --- | --- |
| TTAGTCACTT | 0.986 |
| GATGGCTA | 1.03 |
| CCAGTGTAAA | 1.01 |
| TTGTATTTAG | 0.986 |
| AGTTAATTCA | 0.962 |
| ACTAAATGAT | 1.02 |
| CATTATGAGG | 0.941 |
| AAATGGCTAG | 0.953 |
| TTCACGAGGA | 1.02 |
| TGCTCCCCCG | 3.71 |
| ATAGCGATCG | 1.01 |
| TATACGGTGT | 0.972 |
| GAGAGCGATA | 1.3 |
| GAGCGGAGTT | 0.994 |
| CTTCTTCGCA | 3.8 |
| ACTTAAGCAC | 1.37 |
| CGCAAAATCT | 1.86 |
| GTGATGGGC | 1.06 |
| GTCCCAGAAT | 0.979 |
| CTGAAACGG | 0.994 |
| ATCGTTGCAA | 1.09 |
| ATGGTACCAT | 1.03 |

| Sequence | switch fluorescence ratio |
| --- | --- |
| TCTTGATTAA | 1 |
| GTGCGTGTTC | 0.977 |
| ATTGTTATGT | 1.03 |
| GACAGCGACC | 1.31 |
| TATGGAAGC | 0.997 |
| GGAAGGGTCT | 1.1 |
| TTTAGAGGCG | 1.02 |
| AAACCGGAAA | 1.08 |
| TCACTTAATG | 0.958 |
| GTATAGGTAC | 1.03 |
| CCCATCAAAT | 1.08 |
| CCCGTGAGTA | 1.06 |
| TAGGTGAAGT | 1.03 |
| CGTACTATTG | 0.999 |
| TATCCTGCTC | 1.1 |
| GCCCACACA | 1.03 |
| TTGCGGTCAG | 1.03 |
| GGCAACAGTG | 1.05 |
| GAGTTAAACG | 1.09 |
| GACATCGGTC | 1.02 |
| CGGACGGTCG | 1.11 |
| TCTGGCAATT | 1.55 |

| Sequence | switch fluorescence ratio |
| --- | --- |
| TTCAAGAGCT | 0.957 |
| TCGGGACAGG | 1.02 |
| GCTATGGTCA | 1.03 |
| AACCTTCACA | 1.56 |
| TAGTTAAAAC | 0.992 |
| CCACTACCCC | 1.15 |
| GCCGCTTCCA | 0.988 |
| TCTTTTCCC | 1.04 |
| GTGTGAACAG | 1.01 |
| TTCGCCAGGA | 1.04 |
| TTTGATTACC | 0.986 |
| CCGCGCGACG | 2.37 |
| GTGTTAGTGC | 0.958 |
| AAGATAGGGT | 1 |
| TAAACGGCGA | 1.02 |
| GACTTTACGC | 1.28 |
| TTCGCGCGTA | 0.984 |
| CAGAGTTATG | 0.97 |
| GACCACTGGA | 1.04 |
| GCTGAGCTCG | 0.99 |
| GACTTTTTTT | 0.992 |
| TTCAATGATC | 1.06 |

| Sequence | switch fluorescence ratio |
| --- | --- |
| CCGGGCAGTT | 1.7 |
| CTGTTCCCAT | 1.06 |
| TGACGGCCCG | 1.01 |
| TATTGTAAGA | 0.977 |
| GCTACCTGAG | 1.35 |
| CCGTTTCATG | 0.99 |
| CGAGCGGTGA | 1.06 |
| AGTCTAGTGC | 0.948 |
| CCACCGGACA | 1.4 |
| ACTATTAGGA | 1.03 |
| CATACTGGTA | 0.991 |
| TGAGGTGTTA | 0.992 |
| ATAGAGCTA | 1 |
| TCGAACTACG | 1.04 |
| AGCCGGGCAC | 1.03 |
| CGGCGGTATT | 1.4 |
| TTGCTGCATG | 1.07 |
| AGACGCTCCA | 1.1 |
| AACGTATCAT | 0.989 |
